From publication PMC6682311 (ChemMedChem, 2019)

Test system: difibrinated sheep blood
Conditions: compared to 1% Triton-X; sheep red blood cells, one hour, 37 °C

With `CCCCCCc1ccc(-c2nc(N)[nH]c2C(F)(F)F)cc1` [Compound 12g, 4-(4-Hexylphenyl)-5-(trifluoromethyl)-1H-imidazol-2-amine] the “concentration effecting 50% lysis” value was 151 µM.
In the case of `CCCCCOc1ccc(-c2nc(N)[nH]c2C(F)(F)F)cc1` [Compound 12j, 4-(4-(Pentyloxy)phenyl)-5-(trifluoromethyl)-1H-imidazol-2-amine], the “concentration effecting 50% lysis” value is reported as 159 µM.
